# Assay results taken from the supplement of paper PMC3334620.
# In all, about 33,000 sequences were measured (“E-score (-0.5 to 0.5)”: median about -0.032, highest 2% from about 0.36 on). The list shows a part of the results.
# Molecular target: T1, Sko1 (UniProt Q02100)
# T1 sequence: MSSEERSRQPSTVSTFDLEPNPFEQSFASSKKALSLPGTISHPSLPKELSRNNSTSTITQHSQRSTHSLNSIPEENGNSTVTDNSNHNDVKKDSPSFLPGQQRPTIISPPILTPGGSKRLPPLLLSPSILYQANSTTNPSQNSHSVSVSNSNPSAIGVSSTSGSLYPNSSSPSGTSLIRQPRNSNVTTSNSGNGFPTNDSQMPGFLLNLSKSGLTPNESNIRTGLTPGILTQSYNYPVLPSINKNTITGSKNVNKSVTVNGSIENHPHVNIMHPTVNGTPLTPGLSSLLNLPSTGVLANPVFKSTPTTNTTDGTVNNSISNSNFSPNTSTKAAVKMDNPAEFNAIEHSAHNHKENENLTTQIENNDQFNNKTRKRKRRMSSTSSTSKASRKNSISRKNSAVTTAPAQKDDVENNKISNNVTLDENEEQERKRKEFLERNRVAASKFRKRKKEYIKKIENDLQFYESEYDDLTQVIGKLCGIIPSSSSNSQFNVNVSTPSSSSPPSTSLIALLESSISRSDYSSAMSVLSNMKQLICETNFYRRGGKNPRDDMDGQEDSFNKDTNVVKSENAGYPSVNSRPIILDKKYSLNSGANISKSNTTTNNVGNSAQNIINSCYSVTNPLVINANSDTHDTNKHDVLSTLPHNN
# Assay: PBM E-score (8-mer binding enrichment) (E-score (-0.5 to 0.5)); higher = stronger / more preferred TF binding; most listed sequences are background and not binding sites
# Conditions: protein concentration: 200 nM; construct: GST-full length
# Summary of the method: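 Masliner-normalised scans of fluorescent anti-GST signal were the basis for scoring. That signal came from GST-tagged yeast transcription factors applied at about 100-200 nM to double-stranded universal all-10-mer Agilent arrays on fresh or once-stripped slides. Each ungapped eight-base word, pooled with its reverse complement, received an E-score from the Universal PBM Analysis Suite.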
row,Sequence,PBM E-score
1,CTTGTCGC,-0.183
2,TATCGAAA,0.156
3,ACTGAGAT,0.0107
4,AGGGAACA,-0.0852
5,AACTAAAG,0.228
6,AAATATGG,0.0165
7,CTTGGGCC,-0.209
8,ATCAAGGG,0.00668
9,CAGGATTA,0.101
10,GTATCAAC,0.0145
11,ACGACGAT,0.127
12,CGAGCACC,-0.2
13,CCTGACTC,-0.238
14,CAGAGATG,0.151
15,CATCTTCA,-0.108
16,GCCCATCA,-0.185
17,AGACCTTC,-0.174
18,AACTGAAA,0.113
19,CTCTCGCA,-0.299
20,CCCAAGAC,-0.0563
21,GCGCCCGC,-0.165
22,GCGATCCC,-0.26
23,CATCGGTC,-0.235
24,CCAGCGCG,-0.0549
25,GCAAGAAC,0.174

row,Sequence,PBM E-score
1,TCAATTGA,0.113
2,CAGAAATA,0.168
3,CTCCGAAG,-0.216
4,AACGGCAC,-0.155
5,GAGCTCGA,0.0595
6,ATGCCCTC,-0.0747
7,CCTTTGTC,-0.223
8,ATCATCGC,0.185
9,CTACAGAA,0.0374
10,CCCTTGTA,-0.0784
11,TCCGGGAA,-0.161
12,CAGAGATC,-0.178
13,TAGGCACA,-0.00902
14,GTGATTTA,0.177
15,AATCGTGG,0.143
16,CCCTCACG,-0.0248
17,AATTTTTG,0.246
18,AGACGACG,0.185
19,ATCCAGTA,0.0121
20,GCATGCCC,0.0522
21,AAAAGGAG,-0.207
22,GGGTTGAC,-0.115
23,AAGTCAAA,0.13
24,TGAGGACA,0.0403
25,AAGCACGG,-0.00706

row,Sequence,PBM E-score
1,GCTCGCAC,-0.112
2,TCTAACCA,0.124
3,CGGCCGGA,-0.308
4,CCTACAGC,-0.116
5,AAACATTA,0.0863
6,CCCACAGG,-0.238
7,CCGCTTAG,-0.278
8,ACGCACTA,0.321
9,AGCGCGGA,-0.239
10,CTTTGCCC,-0.139
11,CCCCTGAA,-0.0722
12,ATGTATGG,0.0987
13,AGACCCCC,-0.375
14,ATCTATTA,0.167
15,CATCCAAG,-0.175
16,AGCACGAT,-0.0247
17,CCTTCAAG,-0.0978
18,AAGGGTAG,-0.194
19,GCTAGTTA,0.0505
20,GCAGAATA,0.0667
21,CAACTCAC,0.00457
22,ACGAGCCC,-0.159
23,TGAACAAA,0.227
24,AGGATATG,0.016
25,ATTCTATG,0.0207

row,Sequence,PBM E-score
1,ATACCGAA,0.159
2,CAGTCTGG,-0.312
3,ATACGGGC,-0.187
4,ATGTTCAA,0.0346
5,CCGCCTTA,0.0745
6,CCGCACGG,-0.099
7,ACAATGCA,0.0968
8,CAGGTTGG,-0.151
9,CGAAAGCC,-0.2
10,CGTGGTTA,0.206
11,AAGACACG,0.256
12,AGTCCGTC,0.0882
13,AAGTTCCT,-0.0579
14,AGTACTAA,0.109
15,AGATTCCA,0.203
16,ATAGTAGA,0.0227
17,ACGATGCA,0.15
18,AGTATCTG,-0.0323
19,ACTGTTGA,-0.0735
20,TATATGAA,0.119
21,GAGGTATA,0.0598
22,GGCCAACC,-0.242
23,TATACGAA,0.301
24,AATGATAA,0.317
25,ACACTCCT,-0.189

row,Sequence,PBM E-score
1,AATTCCAC,0.0242
2,TCTGGCCA,0.0305
3,ATGGGGCG,0.0291
4,CCTTAGCA,-0.132
5,AGAACTGA,0.201
6,GCGATACC,-0.207
7,ATCGACGC,0.0937
8,GGCCAGAC,-0.126
9,ATTTAGTA,0.25
10,GGATTAAA,0.0461
11,GCGGTTGA,0.0185
12,AAACGTAT,0.429
13,ACTGGCAA,0.0324
14,ACCGTAAA,0.206
15,GCGCAAAA,0.0973
16,AAATGTGG,-0.0278
17,CACGTTGC,0.175
18,AGGGAGTA,-0.0669
19,AAGTTCAT,-0.0766
20,GAGCGCGC,0.122
21,GGACCCCC,-0.354
22,ACTTGCAC,0.0619
23,AGACCACC,-0.113
24,AGGCGGCC,-0.284
25,AGGTCGAC,-0.0775

row,Sequence,PBM E-score
1,CCTTCAGC,-0.119
2,CCGCGGAG,-0.101
3,CAGACATA,0.148
4,AAACGGCA,-0.0545
5,ACTAGCGA,-0.0298
6,ATACATCA,0.382
7,GTCTTCAA,0.083
8,GGGCTCAA,-0.347
9,CAGAGGTA,-0.0497
10,GATGCCGC,-0.277
11,GGATCCAC,-0.0558
12,CTAACACC,-0.143
13,CGAGCTCG,0.129
14,GGCGTAGA,0.118
15,AATTCGCA,0.0664
16,GATCACGA,0.158
17,CGCGTAGC,0.199
18,CCCTACGG,-0.232
19,GACACTAC,0.185
20,ATACTCGC,0.0175
21,CTAGAATA,0.122
22,ATCGCAAA,0.108
23,GAGCACTA,-0.128
24,GCTAATCA,0.0447
25,AAGATGGA,-0.132

row,Sequence,PBM E-score
1,AGCGTTGG,-0.018
2,GCTGCCCA,-0.295
3,TATTGCCA,-0.0948
4,GCGCTGGA,-0.19
5,CGAAGTCA,0.0315
6,ATTCGCTC,0.0906
7,GATGTTCC,-0.171
8,ACAGCTCC,0.0194
9,TACAATCA,0.156
10,AAATGTAG,0.0634
11,ATTCGTAC,0.314
12,AAGAGATA,0.0394
13,GATCGACA,-0.0848
14,AATCTTGT,0.149
15,GTCGCAGA,-0.063
16,ACCCTCCC,-0.112
17,CCATTTGA,-0.156
18,CGTGCTAA,0.152
19,CTTCAGTC,-0.0551
20,TCTTCGCA,0.112
21,AACGAAGG,-0.0456
22,TACTCCAA,-0.0998
